Results taken from the supplement of paper PMC6206098.
± gives the uncertainty stated by the source. The sequences are guide strands of siRNAs; only the seed at positions 2 to 7 varies.

What was measured:
[1] = tested on: M565; test: cell viability relative to lipid-only control; higher = less toxic; conditions: concentration: 10 nM; 96 h; Mus musculus
[2] = tested on: HeyA8; test: as above; conditions: concentration: 10 nM; 96 h; Homo sapiens
[3] = tested on: H460; test: as above; conditions: concentration: 10 nM; 96 h; Homo sapiens
[4] = tested on: 3LL; test: cell viability relative to siNT1 control; HeyA8 human ovarian and H460 human lung cancer; M565 mouse liver and 3LL mouse lung cancer; siNT1 is a non-toxic control siRNA; higher = less toxic; conditions: concentration: 10 nM; 96 h; Mus musculus;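 also: Luminescence-based viability of cells reverse transfected in 384-well plates with lipid-complexed siRNAs built on a non-toxic 19mer backbone whose passenger strand carries 2′-O-methyl groups at positions 1 and 2, triplicates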
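For cell viability relative to lipid-only control in this document: reverse lipid transfection in 384-well plates, in triplicate, of duplexes on a non-toxic 19mer backbone with passenger strand 2′-O-methylated at positions 1 and 2, luminescence viability read-out.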

| Sequence | cell viability [1] [%] | cell viability [2] [%] | cell viability [3] [%] | cell viability [4] [%] |
| --- | --- | --- | --- | --- |
| UUUGGCCACAUGUAAACCAAA | 43.2 ± 8 | 84.6 ± 7.8 | 55.7 ± 4.2 | 56.4 ± 6.5 |
| UCUGCAUACAUGUAAACCAAA | 76.7 ± 12 | 82.6 ± 6.5 | 66.4 ± 4.3 | 92 ± 15 |
| UCCAUGAACAUGUAAACCAAA | 89.3 ± 17 | 87.6 ± 12 | 60.1 ± 7 | 90.8 ± 28 |
| UUUAAAGACAUGUAAACCAAA | 73.4 ± 8.3 | 99.4 ± 8.8 | 87.8 ± 6.3 | 104 ± 2.6 |
| UGGAGCUACAUGUAAACCAAA | 2.4 ± 1 | 2.22 ± 0.19 | 25.4 ± 1.3 | 2.43 ± 1.2 |
| UAGUGCCACAUGUAAACCAAA | 39.9 ± 4.5 | 57.1 ± 2.4 | 48.1 ± 4.2 | 30.6 ± 4.1 |
| UCUGGUAACAUGUAAACCAAA | 81.8 ± 18 | 90.2 ± 6.9 | 82.2 ± 4.7 | 98.9 ± 17 |
| UUAUCCUACAUGUAAACCAAA | 37.5 ± 4.8 | 21.7 ± 2.8 | 55 ± 0.8 | 26.1 ± 6.7 |
| UCUGUCGACAUGUAAACCAAA | 68.9 ± 3.6 | 78.5 ± 7 | 49.5 ± 2.7 | 103 ± 17 |
| UCAGAGGACAUGUAAACCAAA | 22 ± 1.5 | 59.3 ± 3 | 40.7 ± 2.9 | 97.4 ± 18 |
| UUGGACUACAUGUAAACCAAA | 33 ± 5.1 | 58.5 ± 3.3 | 39.7 ± 3.6 | 15.3 ± 5 |
| UGGCGACACAUGUAAACCAAA | 22.6 ± 1.3 | 8.81 ± 1.5 | 26.8 ± 3.8 | 23.3 ± 4 |
| UCCUAGAACAUGUAAACCAAA | 79.1 ± 8.6 | 84.8 ± 4 | 69.6 ± 5.5 | 85.6 ± 15 |
| UCGAACAACAUGUAAACCAAA | 70.1 ± 5.6 | 84.2 ± 3.4 | 70.3 ± 23 | 89.3 ± 18 |
| UGUUUGUACAUGUAAACCAAA | 83.7 ± 8.5 | 40.1 ± 4.2 | 56.7 ± 5.4 | 34.7 ± 12 |
| UCGCUGAACAUGUAAACCAAA | 44.7 ± 6.5 | 82.4 ± 1.5 | 84.1 ± 11 | 84.4 ± 14 |
| UGAGACCACAUGUAAACCAAA | 6.8 ± 3.4 | 47.3 ± 5.3 | 27.6 ± 3.2 | 16.2 ± 3.8 |
| UUGAUUCACAUGUAAACCAAA | 68 ± 10 | 63.1 ± 2.9 | 51.8 ± 6.9 | 33.1 ± 2.6 |
| UACGGUAACAUGUAAACCAAA | 96.7 ± 9.6 | 67.3 ± 6 | 69.8 ± 8.9 | 87.2 ± 8.3 |
| UUAUGGCACAUGUAAACCAAA | 9.2 ± 0.82 | 63.4 ± 2.4 | 57.7 ± 1.8 | 18.7 ± 1.9 |
| UGCAGAGACAUGUAAACCAAA | 45 ± 1.9 | 60.3 ± 4.7 | 64.6 ± 6.4 | 61.3 ± 14 |
| UUAGGUCACAUGUAAACCAAA | 36.9 ± 4.3 | 13.43 ± 0.13 | 24.6 ± 3.4 | 64.1 ± 8.6 |
| UUCGAUUACAUGUAAACCAAA | 77.9 ± 16 | 96.8 ± 12 | 81.6 ± 15 | 108 ± 19 |
| UUUCAUGACAUGUAAACCAAA | 82 ± 8 | 100 ± 2.5 | 35 ± 7.6 | 103 ± 8.5 |
| UACCGUGACAUGUAAACCAAA | 32.2 ± 7.6 | 85.4 ± 9.1 | 64.5 ± 12 | 82 ± 4.5 |
| UUCGGUUACAUGUAAACCAAA | 80.4 ± 12 | 72.5 ± 9.7 | 63.8 ± 0.82 | 88.9 ± 17 |
| UUAGGAUACAUGUAAACCAAA | 78.3 ± 6.3 | 60.62 ± 0.45 | 38.3 ± 7.3 | 57.2 ± 2.4 |

| Sequence | cell viability [1] [%] | cell viability [2] [%] | cell viability [3] [%] | cell viability [4] [%] |
| --- | --- | --- | --- | --- |
| UUUAUAGACAUGUAAACCAAA | 70.9 ± 13 | 92.2 ± 10 | 71.7 ± 3.3 | 96.2 ± 5.6 |
| UACGGCCACAUGUAAACCAAA | 21 ± 5.1 | 52.7 ± 5.5 | 46.1 ± 2.2 | 8.04 ± 3.7 |
| UAUAUGGACAUGUAAACCAAA | 98.5 ± 1.6 | 77.9 ± 13 | 87.8 ± 24 | 73.4 ± 18 |
| UAUUGGCACAUGUAAACCAAA | 34 ± 3.3 | 60.5 ± 5.2 | 53.4 ± 3.3 | 8.12 ± 1.3 |
| UAUACGAACAUGUAAACCAAA | 106 ± 5.6 | 99.9 ± 2.7 | 75.1 ± 15 | 115 ± 8.2 |
| UCACAGUACAUGUAAACCAAA | 35.6 ± 3.7 | 85.2 ± 4.3 | 24.2 ± 2.2 | 63.1 ± 16 |
| UUAAGAAACAUGUAAACCAAA | 98.3 ± 11 | 88.1 ± 4.7 | 67.8 ± 5.6 | 88.4 ± 12 |
| UAAUAACACAUGUAAACCAAA | 89.5 ± 17 | 78.1 ± 4.7 | 77.4 ± 4.9 | 89.4 ± 18 |
| UUGUUAAACAUGUAAACCAAA | 61.4 ± 4.9 | 71.2 ± 8 | 68 ± 5.8 | 53.6 ± 6.3 |
| UCUUGUAACAUGUAAACCAAA | 74.3 ± 9.2 | 88.6 ± 8.1 | 81.7 ± 20 | 98.8 ± 16 |
| UCAGCCGACAUGUAAACCAAA | 50.3 ± 9 | 89.2 ± 9 | 44.4 ± 5.2 | 77.3 ± 20 |
| UGUUGUGACAUGUAAACCAAA | 32.8 ± 5.7 | 58.4 ± 6 | 59.2 ± 3.1 | 88.2 ± 0.78 |
| UACACCGACAUGUAAACCAAA | 39.2 ± 10 | 72.2 ± 7.4 | 76.2 ± 9.9 | 78.2 ± 17 |
| UUGCUGCACAUGUAAACCAAA | 6.66 ± 2.5 | 62.4 ± 5.2 | 61.7 ± 2.4 | 36.7 ± 7.2 |
| UCAGGUAACAUGUAAACCAAA | 71.6 ± 4.3 | 83 ± 3.6 | 60.4 ± 3.6 | 103 ± 17 |
| UGUAGGGACAUGUAAACCAAA | 34 ± 6.5 | 8.08 ± 1 | 32.9 ± 7.8 | 36.9 ± 7.4 |
| UGACCGUACAUGUAAACCAAA | 8.89 ± 3.9 | 77.7 ± 4.7 | 49.5 ± 3.3 | 75.5 ± 8.8 |
| UGCACUUACAUGUAAACCAAA | 73.8 ± 5.5 | 38.3 ± 3.4 | 46.3 ± 7.8 | 59.2 ± 8.5 |
| UCUCAAGACAUGUAAACCAAA | 69.6 ± 12 | 89.3 ± 4.7 | 27.9 ± 6.6 | 101 ± 8.1 |
| UAGUCAAACAUGUAAACCAAA | 34.2 ± 4.7 | 59 ± 12 | 70.7 ± 6.8 | 76.1 ± 3.4 |
| UGGUGGGACAUGUAAACCAAA | 6.95 ± 1.4 | 1.66 ± 0.28 | 5.41 ± 0.34 | 2.2 ± 0.66 |
| UUUCAGAACAUGUAAACCAAA | 78.5 ± 11 | 80.9 ± 2.4 | 56.6 ± 2 | 94.6 ± 5.8 |
| UGGGGUGACAUGUAAACCAAA | 18.7 ± 7.9 | 2.78 ± 0.19 | 11.9 ± 2 | 7.74 ± 1 |
| UCUGAUAACAUGUAAACCAAA | 58.6 ± 8.3 | 89.5 ± 9.8 | 47.5 ± 5 | 97 ± 21 |
| UUAAUGUACAUGUAAACCAAA | 34.5 ± 8.8 | 69.5 ± 2.4 | 36.6 ± 2.4 | 36.5 ± 5.8 |
| UAGAAACACAUGUAAACCAAA | 68 ± 9.6 | 65.7 ± 3.5 | 63.1 ± 4.9 | 53.2 ± 5.5 |
| UGUCGCCACAUGUAAACCAAA | 16.4 ± 1.6 | 22.4 ± 0.75 | 49.1 ± 1.9 | 7.35 ± 0.65 |

| Sequence | cell viability [1] [%] | cell viability [2] [%] | cell viability [3] [%] | cell viability [4] [%] |
| --- | --- | --- | --- | --- |
| UCGAAGAACAUGUAAACCAAA | 71.1 ± 9.9 | 83.6 ± 5.5 | 64 ± 0.89 | 93.2 ± 16 |
| UUCUCUCACAUGUAAACCAAA | 57.3 ± 6.5 | 71.4 ± 6.1 | 51.1 ± 11 | 36.3 ± 10 |
| UGUUCUUACAUGUAAACCAAA | 12.9 ± 4.3 | 65.4 ± 1.7 | 61.5 ± 11 | 82.4 ± 3.8 |
| UGCUCGCACAUGUAAACCAAA | 52.8 ± 4.9 | 32.6 ± 4.2 | 42.6 ± 4.5 | 57.3 ± 5.7 |
| UCAGACGACAUGUAAACCAAA | 56.6 ± 2 | 83.3 ± 7.1 | 56.6 ± 4.6 | 96.5 ± 15 |
| UGGUGUCACAUGUAAACCAAA | 10.2 ± 4.9 | 23.9 ± 0.82 | 37.3 ± 0.89 | 31.8 ± 4.2 |
| UAUGGGAACAUGUAAACCAAA | 65 ± 9.7 | 85 ± 1.2 | 88.9 ± 6.5 | 112 ± 8.8 |
| UGGACUCACAUGUAAACCAAA | 6.11 ± 0.19 | 33.4 ± 4.8 | 45.9 ± 5.5 | 23.4 ± 5.4 |
| UAACCAUACAUGUAAACCAAA | 45.5 ± 5.4 | 78.5 ± 1.3 | 63.3 ± 7.9 | 73.5 ± 7.3 |
| UGGGUUAACAUGUAAACCAAA | 42.5 ± 5 | 22 ± 5.3 | 54.8 ± 11 | 88.7 ± 1.8 |
| UAGCUCCACAUGUAAACCAAA | 23.8 ± 6.5 | 38.5 ± 3.5 | 43 ± 0.56 | 51.6 ± 2.9 |
| UGAAUGUACAUGUAAACCAAA | 53.3 ± 9.5 | 13.2 ± 2.3 | 53.3 ± 16 | 99.4 ± 13 |
| UGAGGGUACAUGUAAACCAAA | 7.43 ± 2.1 | 2.74 ± 0.078 | 23.7 ± 0.44 | 38.5 ± 3.9 |
| UCCGUGAACAUGUAAACCAAA | 42.4 ± 9.3 | 77.5 ± 3.8 | 53 ± 7.5 | 89.7 ± 13 |
| UUGGCGCACAUGUAAACCAAA | 69.1 ± 6.4 | 79.7 ± 11 | 92.7 ± 8.6 | 41.1 ± 1.5 |
| UCGUUAGACAUGUAAACCAAA | 58.6 ± 2.6 | 76.2 ± 12 | 85.6 ± 17 | 90.6 ± 12 |
| UACCAUAACAUGUAAACCAAA | 84 ± 20 | 101 ± 10 | 58.1 ± 6.3 | 95.4 ± 13 |
| UCGCUUUACAUGUAAACCAAA | 56.5 ± 9.5 | 69 ± 1.1 | 60 ± 4.4 | 94.6 ± 22 |
| UCAGACAACAUGUAAACCAAA | 69.8 ± 8.5 | 97.6 ± 1.5 | 60.5 ± 6.8 | 95.6 ± 20 |
| UCAACAGACAUGUAAACCAAA | 52.9 ± 10 | 83.5 ± 3.1 | 56.1 ± 4.2 | 90.4 ± 12 |
| UGAUCAAACAUGUAAACCAAA | 37.8 ± 7.2 | 51.6 ± 7.7 | 50.9 ± 6.6 | 85.3 ± 22 |
| UCUUGUUACAUGUAAACCAAA | 67.5 ± 15 | 78 ± 0.95 | 66.5 ± 7.4 | 91.9 ± 9.3 |
| UGGUUCCACAUGUAAACCAAA | 15.5 ± 2.1 | 16.5 ± 0.46 | 36.2 ± 1.3 | 33.1 ± 2 |
| UAAGUCCACAUGUAAACCAAA | 11 ± 1.9 | 27.7 ± 4.9 | 46.8 ± 4 | 31.7 ± 4.7 |
| UAAAUCGACAUGUAAACCAAA | 91.1 ± 6.7 | 103 ± 10 | 71.7 ± 6.3 | 117 ± 11 |
| UUAUCAUACAUGUAAACCAAA | 68.5 ± 6.3 | 82.7 ± 9.3 | 74.9 ± 10 | 45.7 ± 5.8 |
